Experimental data from the supplement of paper PMC10986608.
This is one part of the list. Most values come without repeats; read them as rough.

What follows are molecules tested on Candida albicans DPL-15 (assay: growth (OD600) after compound treatment (apparently relative to screen median) (relative growth (fraction; screen median 1.02)); DPL-15 is a caspofungin-resistant clinical isolate; higher = more fungal growth (less antifungal activity)). Conditions: 25 µM; RPMI 1640; 48 h; 30 °C.

Compound | growth
O=Cc1c(O)c(C=O)c(O)c(C(c2ccccc2)N2CCCC2)c1O (stereo not given) | 0.954
CC(=O)Oc1cc(OC(C)=O)c2c(=O)c3c(CC=C(C)C)cc(OC(C)=O)c(OC(C)=O)c3oc2c1 | 0.991
COc1ccc(COc2c(-c3ccccc3)oc3ccccc3c2=O)cc1 | 0.822
COc1ccc(C#C[C@@H]2C=C[C@@H](OC(C)=O)[C@@H](COC(C)=O)O2)cc1 | 1.04
FC(F)(F)c1cc(CCCc2ccccc2)nc(CCCc2ccccc2)c1 | 1.05
C=CCN1C(=O)C2=C(C(C(C)C)=NCCN2C)C1c1ccc(Br)cc1 (stereo not given) | 1.01
Cc1ccc(C2NC(=O)c3c2c(CC(C)C)nn3-c2cc(C)cc(C)c2)cc1 (stereo not given) | 0.956
C#CCCCCCCNC(=O)CC1(CNC(=O)c2cccc(/C=N/NS(=O)(=O)c3ccc(C)cc3)c2)CCCCC1 | 0.959
COC(=O)[C@]1([C@H]2OC(=O)C=C2C)CC(=O)c2c(O)cccc2O1 | 1.26
CC(=O)C1=C2C=CCCN2C(=O)NC1c1cc(F)cc(C(F)(F)F)c1 (stereo not given) | 1.01
O=C1C2=C(C(c3ccccc3)=NCCN2)C(c2ccc(Br)cc2)N1Cc1ccccc1 (stereo not given) | 0.985
COC(=O)c1cc2c(c3c4ccccc4n(S(=O)(=O)c4ccc(OC)cc4)c13)C(=O)N(Cc1cccc(F)c1)C2 | 1.04
CC1CC(=O)c2c(O)cccc2O1 (stereo not given) | 0.963
COC(=O)C1=C(C)N(Cc2ccc(C(F)(F)F)cc2)C(NCc2ccc(C(F)(F)F)cc2)=NC1c1cccc(Cl)c1 (stereo not given) | 1.04
CC(=O)OC[C@H]1O[C@H](C#Cc2ccsc2)C=C[C@@H]1OC(C)=O | 1.1
C=CC[C@]12C[C@@]3(O[C@H](C(C)C)N=C3C[C@H](c3ccc(OC)cc3)[C@H]1C)N(CC)C2=O | 0.954
COc1ccc(N2C(=O)c3[nH]nc(CC(C)C)c3C2c2ccc(F)cc2F)cc1 (stereo not given) | 0.923
C=CCC1=CC2(OCCCO2)C(CO)=C(Br)C1=O | 0.961
CC(CCCCn1c(=O)c2c(ncn2C)n(C)c1=O)OS(=O)(=O)NC(C)(C)C (stereo not given) | 0.97
O=C1C=CC(=O)N1c1ccccc1 | 0.896
CO[C@@H]1[C@H](O)CC[C@]2(O)CN(CCc3cccs3)[C@](C)([C@H](O)CC=C(C)C)[C@@H]12 | 0.935
CC(C)(C)c1ccc(NS(=O)(=O)N2CCOCC2)cc1 | 0.982
CC(C)=CCc1cc(O)cc2oc3ccccc3c(=O)c12 | 0.998
C=CCN1C(=O)C2=C(C(CC(C)C)=NCCN2C)C1c1ccc2c(c1)OCO2 (stereo not given) | 1.02
COC(=O)C1=C(C)N(Cc2ccccc2)C(=S)NC1c1ccccc1Br (stereo not given) | 1.1
COc1ccc(N2C(=O)c3[nH]nc(CC(C)C)c3C2c2cccs2)cc1 (stereo not given) | 1.08
Cc1nn(Cc2ccccc2)c2c1C(c1ccc(Br)cc1)NC2=O (stereo not given) | 1
C=CCC1=C(OC)C(CC=C)(Cc2ccccc2)C(=O)C(C(=O)c2ccccc2)=C1O (stereo not given) | 0.967

Compound | growth
CO[C@@H]1CCN(C(=O)c2c(O)cc(O)cc2NC2Cc3ccccc3C2)C1 | 1.03
CC(C)(C)c1ccc(C#C[C@@H]2C=C[C@@H](O)[C@@H](COC(=O)NCc3ccccc3)O2)cc1 | 0.935
O=C1O/C(=C2/OC(=O)c3ccccc32)c2ccccc21 | 1.26
C[C@@]1(O)C(=O)[C@@]2(C)C=C[C@@H]1[C@@H]1CCO[C@@H]12 | 0.906
CC1=CC[C@@H](C)O[C@@]2(C1)C(=O)Nc1cccc(Br)c12 | 0.843
CC(C)CCCN(C(=O)OC(C)(C)C)S(=O)(=O)NC(C)(C)C | 1.04
COc1ccc(-c2cnn3c(N)c(-c4ccc(F)cc4)cnc23)cn1 | 1.06
CC(=O)OC[C@H]1O[C@H](C#Cc2cccc(C(F)(F)F)c2)C=C[C@@H]1OC(C)=O | 1.04
c1ccc(CCCc2ccccn2)cc1 | 1.07
COc1ccc(CCN2C(=O)[C@H]3[C@H]4c5ccccc5[C@@]([C@H](OCc5ccccc5)C(F)(F)F)(c5ccccc54)[C@H]3C2=O)cc1OC | 0.907
COc1ccc(N2C(=O)C3=C(C(C)=NCCN3C)C2c2ccc3c(c2)OCO3)cc1 (stereo not given) | 0.977
CCCN1C(NCCc2cccs2)=NC(c2ccc(F)cc2)C(C(=O)OC)=C1C (stereo not given) | 0.995
CC(=O)C1=C(C)NC(=S)NC1c1ccccc1 (stereo not given) | 1.03
O=C(/C=C(\O)CCc1ccccc1)CCc1ccccc1 | 0.993
Cc1ccc(S(=O)(=O)Oc2c(CC34COCCC3=Nc3ccccc34)occc2=O)cc1 (stereo not given) | 1.16
COCCN1C(=O)[C@H]2C[C@@]13O[C@H](c1ccc(C(F)(F)F)cc1)N=C3C[C@H](c1ccccc1)[C@H]2C | 1.01
CC(C)(C)CNS(=O)(=O)NC(C)(C)C | 1.2
C#CCC(C)(C)CNC(=O)CC1(CNC(=O)c2cc(/C=N/NS(=O)(=O)c3ccc(C)cc3)ccc2O)CCCCC1 | 1.06
COc1ccc(N2C(=O)C3=C(C(CC(C)C)=NCCN3C)C2c2ccc3c(c2)OCO3)cc1 (stereo not given) | 1.01
CC(=O)OCC(C)(CO)CN1C(=O)c2[nH]nc(CC(C)C)c2C1c1ccc(F)cc1 (stereo not given) | 0.954
CN(C)CCn1cc(Nc2cc(O)cc(O)c2C(=O)N2CCC(F)(F)C2)cn1 | 1.09
COC(=O)C(C(C)=O)C1c2ccccc2C=C(C)N1C(=O)OC (stereo not given) | 0.989
CC(=O)c1nncc2c1c1ccccc1n2C | 1.05
COc1ccc(N2C(=O)C3=C(C(CC(C)C)=NCCN3C)C2c2cccc(C(F)(F)F)c2)cc1 (stereo not given) | 1.02
CCOC(=O)c1nnc(-c2ccccc2)c(-c2ccccc2)n1 | 1.01
CCCCNCC[C@@]12[C@H](NC(=O)OC)[C@@H](C)[C@H](OC)[C@@]13C=CC=C[C@H]32 | 1.04
CC(=O)OC[C@H]1O[C@H](c2ccc(Br)cc2)C=C[C@H]1OC(C)=O | 1.07
